Laboratory results as given in PMC4336329 (PLoS ONE, 2015).
In all, about 310,000 compounds went through this assay and about 14,000 (4.5%) showed an effect of 50% or more. The effect is printed as a negative number. Some of the results follow.
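Also: peak tail current of the secondary pulse compared with the same well before compound.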

The compounds below were run against human ether-à-go-go-related gene (hERG) potassium channel (human, UniProt Q12809) (assay: primary screen, population patch clamp on CHO cells stably expressing hERG).
human ether-à-go-go-related gene (hERG) potassium channel, sequence (Q12809 whole entry, looked up): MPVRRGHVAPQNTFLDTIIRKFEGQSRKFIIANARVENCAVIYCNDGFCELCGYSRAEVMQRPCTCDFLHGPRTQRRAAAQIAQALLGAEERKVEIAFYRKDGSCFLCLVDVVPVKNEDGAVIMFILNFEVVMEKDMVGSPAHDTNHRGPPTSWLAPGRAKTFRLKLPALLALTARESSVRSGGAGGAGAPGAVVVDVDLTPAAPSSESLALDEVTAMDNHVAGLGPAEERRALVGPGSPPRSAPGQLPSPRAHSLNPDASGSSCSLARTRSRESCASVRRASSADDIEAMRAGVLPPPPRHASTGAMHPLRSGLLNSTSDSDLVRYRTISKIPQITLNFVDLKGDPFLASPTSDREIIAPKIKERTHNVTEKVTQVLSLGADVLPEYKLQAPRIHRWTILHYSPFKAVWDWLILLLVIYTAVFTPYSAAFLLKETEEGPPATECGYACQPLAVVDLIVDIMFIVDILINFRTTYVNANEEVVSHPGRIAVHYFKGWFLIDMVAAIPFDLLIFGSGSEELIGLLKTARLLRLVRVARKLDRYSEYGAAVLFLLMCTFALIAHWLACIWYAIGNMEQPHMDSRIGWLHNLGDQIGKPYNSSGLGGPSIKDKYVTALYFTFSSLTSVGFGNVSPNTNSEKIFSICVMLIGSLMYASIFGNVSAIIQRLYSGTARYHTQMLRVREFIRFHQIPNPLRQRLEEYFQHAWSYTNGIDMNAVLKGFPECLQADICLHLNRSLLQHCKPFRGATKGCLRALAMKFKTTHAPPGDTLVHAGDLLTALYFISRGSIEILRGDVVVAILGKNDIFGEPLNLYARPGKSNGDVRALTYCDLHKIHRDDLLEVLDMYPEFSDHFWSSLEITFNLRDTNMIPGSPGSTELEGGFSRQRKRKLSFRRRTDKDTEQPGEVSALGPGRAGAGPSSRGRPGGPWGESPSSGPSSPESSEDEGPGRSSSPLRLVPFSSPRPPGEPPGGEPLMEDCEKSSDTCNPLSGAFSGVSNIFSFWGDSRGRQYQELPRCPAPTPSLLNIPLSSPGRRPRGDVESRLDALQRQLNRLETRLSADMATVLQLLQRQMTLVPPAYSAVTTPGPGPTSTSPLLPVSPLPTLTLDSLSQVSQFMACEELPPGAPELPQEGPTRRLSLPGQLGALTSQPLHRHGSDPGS
With `O=C(Cn1cnc2ccccc21)OCC(=O)N1CCc2ccccc2C1` the “hERG current change (%, negative = inhibition) at 10uM” value was -4.25%. With `CC(Oc1ccc(C(=O)c2ccccc2)cc1)C(=O)Nc1ccc(S(N)(=O)=O)cc1` (centres unmarked) the “hERG current change (%, negative = inhibition) at 10uM” value was -23.1%. In the case of `Cc1cc(C(=O)NNC(=O)c2cccc(N(C)C)c2)c(C)o1`, the “hERG current change (%, negative = inhibition) at 10uM” value is reported as -0.4%. With `CC1(NC(=S)NCCO)CCS(=O)(=O)C1` (centres unmarked) the “hERG current change (%, negative = inhibition) at 10uM” value was 9.03%. With `O=C(COc1ccc(Cl)cc1Cl)OCC(=O)N1CCCc2ccccc21` the “hERG current change (%, negative = inhibition) at 10uM” value was -0.227%. In the case of `COc1ccc2c(CC(=O)Nc3nc(C)cs3)coc2c1`, the “hERG current change (%, negative = inhibition) at 10uM” value is reported as -8.96%. For `CCNc1nc(NCC)nc(NC(N)=S)n1`, the “hERG current change (%, negative = inhibition) at 10uM” value was 21.4%. With `COc1ccc(/C=C/C(=O)OCC(=O)Nc2ccc(Cl)c(S(=O)(=O)N(C)C)c2)cc1OC` the “hERG current change (%, negative = inhibition) at 10uM” value was 2.74%. For `CCOC(=O)N/N=C1\CCS(=O)(=O)c2ccc(Cl)cc21`, the “hERG current change (%, negative = inhibition) at 10uM” value was -7.4%. `Cc1nn(Cc2ccccc2)c(C)c1NC(=O)CCC(=O)O` was tested, and the “hERG current change (%, negative = inhibition) at 10uM” value was 2.81%. In the case of `Nc1nc(SCC(=O)Nc2cccnc2Cl)n[nH]1`, the “hERG current change (%, negative = inhibition) at 10uM” value is reported as 7.22%. In the case of `CC(C)(C)NC(=O)COC(=O)c1cc(Cl)ccc1[N+](=O)[O-]`, the “hERG current change (%, negative = inhibition) at 10uM” value is reported as 13%. For `CC(=O)N1N=C(c2cccc(Cl)c2)OC1c1cccc([N+](=O)[O-])c1` (centres unmarked), the “hERG current change (%, negative = inhibition) at 10uM” value was -8.93%. In the case of `Cc1ccc(OCCCOc2cccc3cccnc23)cc1C`, the “hERG current change (%, negative = inhibition) at 10uM” value is reported as 4.71%. In the case of `COc1ccccc1N1CCN(Cc2ccc(O)c3ncccc23)CC1`, the “hERG current change (%, negative = inhibition) at 10uM” value is reported as -27.1%. `C=C(Cl)COc1ccc2c(CCCC)cc(=O)oc2c1` was tested, and the “hERG current change (%, negative = inhibition) at 10uM” value was -24.9%. `CCNC(=S)N1CCN(C(c2ccccc2)c2ccccc2)CC1` was tested, and the “hERG current change (%, negative = inhibition) at 10uM” value was 2.6%. For `COc1ccccc1CNC(=O)c1cc2c(C)nn(Cc3ccc(F)cc3)c2s1`, the “hERG current change (%, negative = inhibition) at 10uM” value was 0.106%. With `CC(C)Sc1ccccc1C(=O)Nc1ccc2c(c1)n(C)c(=O)n2C` the “hERG current change (%, negative = inhibition) at 10uM” value was 12.2%. For `COCCNC(=O)CN(c1cccc(OC)c1)S(=O)(=O)c1ccc(C)cc1`, the “hERG current change (%, negative = inhibition) at 10uM” value was -12.2%. `CCOc1ccc(OCCOCCN2CCc3ccccc3C2)cc1` was tested, and the “hERG current change (%, negative = inhibition) at 10uM” value was -74.8%. With `CCOC(=O)NC(=O)CSc1cc(C)c2cc(C)cc(C)c2n1` the “hERG current change (%, negative = inhibition) at 10uM” value was 8.47%. For `O=C(NCc1ccc2c(c1)OCO2)C1CCCCC1`, the “hERG current change (%, negative = inhibition) at 10uM” value was -8.61%. For `COc1cc(/C=C2\S/C(=N/S(=O)(=O)c3ccccc3)NC2=O)c([N+](=O)[O-])cc1OC`, the “hERG current change (%, negative = inhibition) at 10uM” value was 4.25%. `CSc1nc2sc3c(c2c2nnnn12)CCCC3` was tested, and the “hERG current change (%, negative = inhibition) at 10uM” value was 7.91%. `CC(C)c1ccc(/C=C/C(=O)N2CCCCCC2)cc1` was tested, and the “hERG current change (%, negative = inhibition) at 10uM” value was -18%.
